Results taken from paper PMC7303358, “The Lotus japonicus Ubiquitin Ligase SIE3 Interacts With the Transcription Factor SIP1 and Forms a Homodimer” (Frontiers in Plant Science, 2020).
No constants are given. Whether binding was seen depends on the method and setting. For part of these data: In cells and extracts the contact can be indirect. Some results given as binding are weak or reduced against the parent protein; the word gives no strength. Tags and fused reporters may be left off the sequences shown. Values belong to the molecule of their own block, whether it stands above or below them.

Sequences of proteins named here, by UniProt entry; tags and fusion partners are left off.
UniProt O81445: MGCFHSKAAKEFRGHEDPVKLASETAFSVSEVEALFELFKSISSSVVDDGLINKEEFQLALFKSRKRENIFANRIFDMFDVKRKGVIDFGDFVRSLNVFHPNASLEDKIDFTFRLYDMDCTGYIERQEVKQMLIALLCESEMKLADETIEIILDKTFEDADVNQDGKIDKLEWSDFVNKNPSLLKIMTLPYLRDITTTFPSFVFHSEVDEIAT

What was measured:
[1] = biological target: T1, Arabidopsis CBL-… PROTEIN KINASE 24 (CIPK24), SCC fusion for BiFC (Arabidopsis) (UniProt Q9LDI3); assay: split reporter; BiFC with split CFP (SCN in pSCYNE, SCC in pSCYCE-R) in N. benthamiana leaf epidermal cells after Agrobacterium infiltration with p19; confocal microscopy
T1 sequence: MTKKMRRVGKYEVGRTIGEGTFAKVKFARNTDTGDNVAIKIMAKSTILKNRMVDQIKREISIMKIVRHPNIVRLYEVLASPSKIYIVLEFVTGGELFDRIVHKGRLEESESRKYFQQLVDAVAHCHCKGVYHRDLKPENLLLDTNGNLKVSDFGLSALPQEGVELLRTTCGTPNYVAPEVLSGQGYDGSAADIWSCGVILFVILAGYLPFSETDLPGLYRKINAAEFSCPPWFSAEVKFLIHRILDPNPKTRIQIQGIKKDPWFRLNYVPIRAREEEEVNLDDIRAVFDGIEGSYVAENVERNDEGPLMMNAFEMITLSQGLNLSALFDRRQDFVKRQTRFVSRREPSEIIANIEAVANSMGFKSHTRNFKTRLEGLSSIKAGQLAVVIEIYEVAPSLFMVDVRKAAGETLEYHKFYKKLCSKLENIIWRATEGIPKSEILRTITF

[2] = biological target: T2, SIP1, BiFC fusion expressed in N. benthamiana leaves (L. japonicus) (UniProt B2CZF7); assay: as above
T2 sequence: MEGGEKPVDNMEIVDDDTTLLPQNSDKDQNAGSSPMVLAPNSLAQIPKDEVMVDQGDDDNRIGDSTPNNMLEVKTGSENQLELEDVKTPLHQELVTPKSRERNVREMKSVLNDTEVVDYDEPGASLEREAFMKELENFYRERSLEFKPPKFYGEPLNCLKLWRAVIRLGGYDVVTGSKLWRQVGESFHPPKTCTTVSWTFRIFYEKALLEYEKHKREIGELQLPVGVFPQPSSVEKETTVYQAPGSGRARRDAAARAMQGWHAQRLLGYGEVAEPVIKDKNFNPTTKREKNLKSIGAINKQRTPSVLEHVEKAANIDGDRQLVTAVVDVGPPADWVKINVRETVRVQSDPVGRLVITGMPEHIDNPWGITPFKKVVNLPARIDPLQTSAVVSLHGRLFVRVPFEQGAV

[3] = biological target: T3, SymRK interacting protein 1 (SIP1), yeast two-hybrid fusions (L. japonicus) (UniProt B2CZF7); assay: two-hybrid; Gal4 system, BD fusions in pGBKT7 and AD fusions in pGADT7, small-scale mating; growth on SD/-Trp-Leu-His-Ade (SD-4), X-gal and β-galactosidase activity (Miller units)
T3 sequence: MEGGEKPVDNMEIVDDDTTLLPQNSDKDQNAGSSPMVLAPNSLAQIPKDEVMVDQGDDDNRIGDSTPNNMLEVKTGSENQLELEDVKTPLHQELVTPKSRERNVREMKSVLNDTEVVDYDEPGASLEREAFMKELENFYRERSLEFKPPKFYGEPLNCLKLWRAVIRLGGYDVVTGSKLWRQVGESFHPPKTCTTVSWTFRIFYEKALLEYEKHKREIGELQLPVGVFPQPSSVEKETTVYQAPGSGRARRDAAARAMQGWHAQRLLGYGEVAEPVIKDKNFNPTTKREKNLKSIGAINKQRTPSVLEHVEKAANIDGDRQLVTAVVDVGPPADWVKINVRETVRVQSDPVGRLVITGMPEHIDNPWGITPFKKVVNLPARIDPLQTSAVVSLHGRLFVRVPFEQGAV

[4] = biological target: T4, SymRK interacting E3 ligase (SIE3), yeast two-hybrid fusions (L. japonicus) (UniProt K0BV36); assay: as above
T4 sequence: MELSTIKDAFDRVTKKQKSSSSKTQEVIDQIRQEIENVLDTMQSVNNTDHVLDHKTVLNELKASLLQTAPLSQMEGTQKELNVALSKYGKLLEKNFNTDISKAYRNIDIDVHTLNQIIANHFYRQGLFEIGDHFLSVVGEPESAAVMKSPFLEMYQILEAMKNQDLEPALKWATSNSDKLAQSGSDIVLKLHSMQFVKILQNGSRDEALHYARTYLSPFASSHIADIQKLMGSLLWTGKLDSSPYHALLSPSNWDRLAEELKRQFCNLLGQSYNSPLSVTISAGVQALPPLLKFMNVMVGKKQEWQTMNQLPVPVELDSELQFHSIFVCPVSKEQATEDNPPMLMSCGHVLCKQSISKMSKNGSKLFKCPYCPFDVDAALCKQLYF

[5] = biological target: SIE3::GFP (L. japonicus) (UniProt K0BV36); assay: SDS-PAGE without DTT in the loading buffer and immunoblot (band of dimer size); SIE3::GFP leaf extract in native buffer, incubated with 10 μM ATP at 4°C with 200 mM DTT; stopped with SDS loading buffer without DTT; anti-GFP blot
[6] = biological target: SIE3-C266S, BiFC fusion expressed in N. benthamiana leaves (L. japonicus) (UniProt K0BV36); assay: split reporter; BiFC with split CFP (SCN in pSCYNE, SCC in pSCYCE-R) in N. benthamiana leaf epidermal cells after Agrobacterium infiltration with p19; confocal microscopy
[7] = biological target: Nod factor receptor 5 (NFR5), SCC fusion for BiFC (L. japonicus) (UniProt Q70KR1); assay: as above
[8] = biological target: SIE3, BiFC fusion expressed in N. benthamiana leaves (L. japonicus) (UniProt K0BV36); assay: as above
[9] = biological target: SIE3, BiFC fusion expressed in N. benthamiana leaves (L. japonicus) (UniProt K0BV36); assay: SDS-PAGE and immunoblot of leaf extracts (band of dimer size); proteins extracted from N. benthamiana leaves of the BiFC experiments, immunoblot with anti-Flag or anti-HA antibody
[10] = biological target: SIE3-C266S, yeast two-hybrid fusions (L. japonicus) (UniProt K0BV36); assay: two-hybrid; Gal4 system, BD fusions in pGBKT7 and AD fusions in pGADT7, small-scale mating; growth on SD/-Trp-Leu-His-Ade (SD-4), X-gal and β-galactosidase activity (Miller units)

B2: SIE3::GFP (natural protein, L. japonicus, UniProt K0BV36 1-386, looked up)
chain: MELSTIKDAFDRVTKKQKSSSSKTQEVIDQIRQEIENVLDTMQSVNNTDHVLDHKTVLNELKASLLQTAPLSQMEGTQKELNVALSKYGKLLEKNFNTDISKAYRNIDIDVHTLNQIIANHFYRQGLFEIGDHFLSVVGEPESAAVMKSPFLEMYQILEAMKNQDLEPALKWATSNSDKLAQSGSDIVLKLHSMQFVKILQNGSRDEALHYARTYLSPFASSHIADIQKLMGSLLWTGKLDSSPYHALLSPSNWDRLAEELKRQFCNLLGQSYNSPLSVTISAGVQALPPLLKFMNVMVGKKQEWQTMNQLPVPVELDSELQFHSIFVCPVSKEQATEDNPPMLMSCGHVLCKQSISKMSKNGSKLFKCPYCPFDVDAALCKQLYF
notes: SIE3 of Lotus japonicus fused to GFP; the cloning of this construct is not described; Detected with anti-GFP antibody; monomer about 68.5 kDa, upper band about 137 kDa; source: N. benthamiana leaves, total proteins extracted in native buffer
binding [5]: no binding (condition: with 200 mM DTT)

B3: SIE3-C266S, BiFC fusion expressed in N. benthamiana leaves (protein, UniProt K0BV36 1-386)
chain: MELSTIKDAFDRVTKKQKSSSSKTQEVIDQIRQEIENVLDTMQSVNNTDHVLDHKTVLNELKASLLQTAPLSQMEGTQKELNVALSKYGKLLEKNFNTDISKAYRNIDIDVHTLNQIIANHFYRQGLFEIGDHFLSVVGEPESAAVMKSPFLEMYQILEAMKNQDLEPALKWATSNSDKLAQSGSDIVLKLHSMQFVKILQNGSRDEALHYARTYLSPFASSHIADIQKLMGSLLWTGKLDSSPYHALLSPSNWDRLAEELKRQFSNLLGQSYNSPLSVTISAGVQALPPLLKFMNVMVGKKQEWQTMNQLPVPVELDSELQFHSIFVCPVSKEQATEDNPPMLMSCGHVLCKQSISKMSKNGSKLFKCPYCPFDVDAALCKQLYF
binding [6]: no binding

B5: SIE3-C266S, yeast two-hybrid fusions (protein, UniProt K0BV36 1-386)
chain: MELSTIKDAFDRVTKKQKSSSSKTQEVIDQIRQEIENVLDTMQSVNNTDHVLDHKTVLNELKASLLQTAPLSQMEGTQKELNVALSKYGKLLEKNFNTDISKAYRNIDIDVHTLNQIIANHFYRQGLFEIGDHFLSVVGEPESAAVMKSPFLEMYQILEAMKNQDLEPALKWATSNSDKLAQSGSDIVLKLHSMQFVKILQNGSRDEALHYARTYLSPFASSHIADIQKLMGSLLWTGKLDSSPYHALLSPSNWDRLAEELKRQFSNLLGQSYNSPLSVTISAGVQALPPLLKFMNVMVGKKQEWQTMNQLPVPVELDSELQFHSIFVCPVSKEQATEDNPPMLMSCGHVLCKQSISKMSKNGSKLFKCPYCPFDVDAALCKQLYF
binding [10]: no binding

Next, values leading:

binding [1]: binds
Molecule: Arabidopsis CALCINEURIN B-LIKE (CBL) 1, SCN fusion for BiFC (from UniProt O81445 1-213)

binding [2]: no binding
Molecule: Nod factor receptor 5 (NFR5), SCN fusion for BiFC (from UniProt Q70KR1 1-595)

binding [3]: binds
binding [4]: binds
B1: SymRK interacting E3 ligase (SIE3), yeast two-hybrid fusions (protein, UniProt K0BV36 1-386)
chain: MELSTIKDAFDRVTKKQKSSSSKTQEVIDQIRQEIENVLDTMQSVNNTDHVLDHKTVLNELKASLLQTAPLSQMEGTQKELNVALSKYGKLLEKNFNTDISKAYRNIDIDVHTLNQIIANHFYRQGLFEIGDHFLSVVGEPESAAVMKSPFLEMYQILEAMKNQDLEPALKWATSNSDKLAQSGSDIVLKLHSMQFVKILQNGSRDEALHYARTYLSPFASSHIADIQKLMGSLLWTGKLDSSPYHALLSPSNWDRLAEELKRQFCNLLGQSYNSPLSVTISAGVQALPPLLKFMNVMVGKKQEWQTMNQLPVPVELDSELQFHSIFVCPVSKEQATEDNPPMLMSCGHVLCKQSISKMSKNGSKLFKCPYCPFDVDAALCKQLYF

binding [7]: no binding
binding [8]: binds
binding [2]: binds
binding [9]: binds
B4: SIE3, BiFC fusion expressed in N. benthamiana leaves (protein, UniProt K0BV36 1-386)
chain: MELSTIKDAFDRVTKKQKSSSSKTQEVIDQIRQEIENVLDTMQSVNNTDHVLDHKTVLNELKASLLQTAPLSQMEGTQKELNVALSKYGKLLEKNFNTDISKAYRNIDIDVHTLNQIIANHFYRQGLFEIGDHFLSVVGEPESAAVMKSPFLEMYQILEAMKNQDLEPALKWATSNSDKLAQSGSDIVLKLHSMQFVKILQNGSRDEALHYARTYLSPFASSHIADIQKLMGSLLWTGKLDSSPYHALLSPSNWDRLAEELKRQFCNLLGQSYNSPLSVTISAGVQALPPLLKFMNVMVGKKQEWQTMNQLPVPVELDSELQFHSIFVCPVSKEQATEDNPPMLMSCGHVLCKQSISKMSKNGSKLFKCPYCPFDVDAALCKQLYF

binding [4]: binds
B6: SymRK interacting protein 1 (SIP1), yeast two-hybrid fusions (protein, UniProt B2CZF7 1-408)
chain: MEGGEKPVDNMEIVDDDTTLLPQNSDKDQNAGSSPMVLAPNSLAQIPKDEVMVDQGDDDNRIGDSTPNNMLEVKTGSENQLELEDVKTPLHQELVTPKSRERNVREMKSVLNDTEVVDYDEPGASLEREAFMKELENFYRERSLEFKPPKFYGEPLNCLKLWRAVIRLGGYDVVTGSKLWRQVGESFHPPKTCTTVSWTFRIFYEKALLEYEKHKREIGELQLPVGVFPQPSSVEKETTVYQAPGSGRARRDAAARAMQGWHAQRLLGYGEVAEPVIKDKNFNPTTKREKNLKSIGAINKQRTPSVLEHVEKAANIDGDRQLVTAVVDVGPPADWVKINVRETVRVQSDPVGRLVITGMPEHIDNPWGITPFKKVVNLPARIDPLQTSAVVSLHGRLFVRVPFEQGAV
